# Experimental data as given in PubChem BioAssay AID445 (National Center for Advancing Translational Sciences (NCATS), 2006).
# Hit rate of the full screen: of about 110,000 compounds, about 40 (0.04%) were called active. The shares of active, inactive and inconclusive entries below differ from those in the screen. Calls come from the whole dose curve; as a rule, active = well fitted curve in the direction sought with a large enough effect in the signal ratio (not every such curve was filed as active); inconclusive = small, poorly fitted or top-dose-only effect, or a change in a side signal; inactive = flat fitted curve, though single readings scatter; the % refers to the signal ratio. Potencies beside an inconclusive call are fits to weak or partial responses and may not hold up.
# Experiment: IkB Signaling;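 for IkBa stabilization activation: 0% = basal untreated cells and 100% = reference inhibitor full response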
# Conditions: ABC-DLBCL IkBa-CBG/CBR dual luciferase ratio (green luciferase fused to IkBa over red control in OCI-Ly3 lymphoma cells), 4 h; IkBa stabilization activation: at 57.1 µM (top of the series), scaled: untreated 0%, proteasome inhibitor 100% unless noted
# Procedure, shortened: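 Curves were fitted separately to fusion (green), unfused (red) and ratio luminescence, then classed by r2, magnitude and activity. Cells: OCI-Ly3, 4 h compound plus doxycycline at 37C; 10 uM MG-132 defined full response.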
# Potency is the fitted concentration of half-maximal effect.
Structure (SMILES),IkBa stabilization activation,Potency
COc1ccc(CNC(=O)CSc2ncc3c(n2)-c2cc(Cl)ccc2N(Cc2ccccc2)S3(=O)=O)cc1OC,inactive,
COc1ccccc1NC(=O)Cn1c(=O)n(CCc2ccccc2)c(=O)c2c3c(sc21)CN(C(C)=O)CC3,inconclusive: 0.771% [signal inhibitor],
Cc1nnc(SCc2nc(-c3ccc(Cl)cc3)no2)n1-c1ccc(F)cc1,inconclusive: 1.66% [signal inhibitor],
C[C@H]1[C@H](C)CC[C@]2(C(=O)O)CC[C@]3(C)C(=CC[C@@H]4[C@]5(C)C[C@H](O)[C@@H](O)[C@@](C)(CO)[C@@H]5[C@H](O)C[C@@]43C)[C@H]12,"inactive: -0.141% [at 11.4 µM, scaled: untreated 0%, proteasome inhibitor 100%]",
Cc1ccc(Cn2cc(/C=C(/C#N)C(=O)Nc3cccc(Cl)c3)c3ccccc32)cc1,,"inconclusive: 10 µM [signal inhibitor, partial curve]"
O=c1cc(-c2ccccc2)nc2cc(-c3ccc(F)cc3)[nH]n12,,"inconclusive: 12.6 µM [signal inhibitor, partial curve]"
COc1cc2ccccc2cc1C(=O)Nc1cc(-c2nc3ccccc3o2)ccc1C,inconclusive: 9.97% [signal inhibitor],
Cc1c(C(=O)OCC2CCCCC2)[nH]c2c1C(=O)CC(c1ccc(Cl)cc1)C2 (stereo unspecified),inconclusive: -3.12% [signal inhibitor],
CN(C)c1ncc2nc(CCc3ccccc3)c(=O)n(Cc3cccs3)c2n1,"inactive: 2.21% [at 11.4 µM, scaled: untreated 0%, proteasome inhibitor 100%]",
c1ccc(-c2nn3c(-c4ccncc4)nnc3s2)nc1,inactive,
CCC(=O)N1CCN(C(C)=O)C1c1ccccc1 (stereo unspecified),inactive,
CCn1c(=O)cc(OCC(=O)NCc2ccccc2Cl)c2ccccc21,inconclusive: 0.566% [signal inhibitor],
CCOC(=O)c1c(C)oc2c1c(C(c1cccnc1)N1CCN(C)CC1)c(O)c1ccccc12 (stereo unspecified),inconclusive: 11.5% [signal inhibitor],
CN(C)C(=O)c1ccc(-c2nc(Nc3ccncc3)c3ccccc3n2)cc1,"inactive: -8.52% [at 11.4 µM, scaled: untreated 0%, proteasome inhibitor 100%]",
COc1ccc(CNC(=O)COC(=O)c2n[nH]c3ccccc23)cc1OC,inconclusive: 3.45% [signal inhibitor],
Cc1ccccc1C(=O)Nc1nnc(S(=O)(=O)N(C)Cc2ccc(Cl)cc2)s1,inconclusive: 3.3% [signal inhibitor],
